Source: the supplement of paper PMC3334620
Whole data set: some 33,000 sequences, median “E-score (-0.5 to 0.5)” near -0.035, cut for the highest 2% near 0.34. The list shows a part of the results.

What follows are sequences tested against T1, Mot3 (UniProt P54785) (assay: PBM E-score (8-mer binding enrichment) (E-score (-0.5 to 0.5)); higher = stronger / more preferred TF binding; most listed sequences are background and not binding sites). Conditions: protein concentration: 200 nM; construct: GST-full length.
T1 sequence: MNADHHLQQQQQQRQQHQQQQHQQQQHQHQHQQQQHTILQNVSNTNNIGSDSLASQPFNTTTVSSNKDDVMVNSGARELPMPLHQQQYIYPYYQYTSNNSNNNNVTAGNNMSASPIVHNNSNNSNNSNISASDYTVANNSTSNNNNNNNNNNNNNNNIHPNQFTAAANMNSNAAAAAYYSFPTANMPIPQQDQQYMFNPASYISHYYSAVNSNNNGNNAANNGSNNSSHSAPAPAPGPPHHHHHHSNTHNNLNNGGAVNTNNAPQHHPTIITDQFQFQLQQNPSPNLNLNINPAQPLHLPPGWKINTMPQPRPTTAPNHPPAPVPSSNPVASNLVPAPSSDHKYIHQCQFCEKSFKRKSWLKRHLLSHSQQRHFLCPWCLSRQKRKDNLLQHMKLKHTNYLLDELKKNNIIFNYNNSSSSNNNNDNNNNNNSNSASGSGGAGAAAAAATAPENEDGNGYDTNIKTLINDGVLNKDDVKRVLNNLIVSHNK
Outline: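 Full-length yeast transcription factors or their DNA-binding domains, GST-tagged and expressed with PURExpress, were applied at about 100-200 nM to universal all-10-mer Agilent arrays. These arrays had been made double-stranded by primer extension on fresh or once-stripped slides. Detection used fluorescent anti-GST, normalisation used masliner, and E-scores for ungapped eight-base words pooled with reverse complements came from the Universal PBM Analysis Suite.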

Row | Sequence | PBM E-score
1 | AGGTAGAA | -0.0405
2 | AAAAGGGC | -0.0432
3 | GCACGGAA | 0.126
4 | GCGCATCA | -0.158
5 | CGAGTTGA | -0.144
6 | GGACCAGA | -0.107
7 | GAAACAAC | -0.0664
8 | ACTTTCTA | -0.0375
9 | CGAGCTGC | -0.215
10 | TAAGACCA | -0.00635
11 | ACATACGG | 0.1
12 | CTCCACCA | -0.249
13 | GGTCTAAA | -0.127
14 | CGTCGGAC | -0.226
15 | AAGCGACC | -0.0653
16 | TACAGGGA | 0.0536
17 | AATGGCAT | -0.0515
18 | AATACTGA | 0.0286
19 | GGAGGACA | -0.0477
20 | ATGCTTCA | -0.0616
21 | GGGGGCTA | -0.346
22 | AGAACTGG | -0.0526

Row | Sequence | PBM E-score
23 | AACGACCA | -0.0981
24 | CGGGTATA | 0.00781
25 | AGAGCACT | -0.0229
26 | AGGGTCGG | -0.209
27 | CGCAAGTC | -0.268
28 | AGTGTATC | -0.009
29 | CCCTTGCG | -0.214
30 | ATGCGTAA | 0.32
31 | TATACCCA | -0.0838
32 | AGTGAGAT | -0.201
33 | AATTGATC | -0.077
34 | AGTCCCCG | -0.175
35 | GCCCACTA | -0.0583
36 | AGCCTATA | 0.259
37 | CATAAGGG | -0.0326
38 | GAAACACC | 0.101
39 | CCGCTGGC | -0.18
40 | CCCAGCCG | -0.298
41 | GTACTTTA | 0.154
42 | CTGCAACC | -0.054
43 | AACTGATA | -0.136
44 | CATTTGAA | -0.1

Row | Sequence | PBM E-score
45 | CTCTCCGC | -0.0335
46 | CACTGTCC | -0.196
47 | GCCGAGCC | -0.161
48 | ACACTCGA | -0.00344
49 | CGTGCTGC | -0.0648
50 | GTTAGTTA | 0.187
51 | AATAGATG | 0.0226
52 | AAAAGTTC | 0.0652
53 | ATTTTCTA | 0.0358
54 | GGTACCAA | -0.0319
55 | AAACTCTG | 0.135
56 | CGGGCACC | 0.17
57 | AGAGGCGG | -0.193
58 | ATGACCGA | -0.238
59 | CTACCCGA | 0.0334
60 | CGTACTAG | -0.0991
61 | GGACCTTA | -0.106
62 | CCCTAGGC | 0.0159
63 | TAGTGAAA | 0.0747
64 | ACTAGTGA | -0.0148
65 | ATTAACCC | -0.021
66 | TAGAATCA | -0.00353

Row | Sequence | PBM E-score
67 | CGGGCCAC | -0.257
68 | CCATCCTA | -0.148
69 | CCCATGTC | 0.0657
70 | CTCCCTTA | -0.018
71 | AATGCGAC | -0.00455
72 | CACGGGAC | -0.155
73 | GCCCAAGC | -0.141
74 | AAAACTTG | 0.194
75 | AGTAGCGC | -0.154
76 | GCTTGGAC | -0.124
77 | GGTCGCCA | -0.278
78 | GCAGCCGC | -0.156
79 | CTAAATTA | 0.0921
80 | CATCACGG | -0.0765
81 | ACGCGTAG | 0.26
82 | CTCCATCC | -0.196
83 | AACAACCA | 0.108
84 | GGTATGGA | -0.183
85 | AACTGACC | -0.239
86 | CGATGTAA | 0.33
